According to PMC4336329 (PLoS ONE, 2015):
The campaign covered roughly 310,000 compounds. About 2,200 (0.71%) showed an effect of 50% or more. Effects have a minus sign here. This is one part of the list.

Target: human ether-à-go-go-related gene (hERG) potassium channel (human, UniProt Q12809)
Assay: primary screen, population patch clamp on CHO cells stably expressing hERG

Chain of human ether-à-go-go-related gene (hERG) potassium channel (Q12809 whole entry, looked up): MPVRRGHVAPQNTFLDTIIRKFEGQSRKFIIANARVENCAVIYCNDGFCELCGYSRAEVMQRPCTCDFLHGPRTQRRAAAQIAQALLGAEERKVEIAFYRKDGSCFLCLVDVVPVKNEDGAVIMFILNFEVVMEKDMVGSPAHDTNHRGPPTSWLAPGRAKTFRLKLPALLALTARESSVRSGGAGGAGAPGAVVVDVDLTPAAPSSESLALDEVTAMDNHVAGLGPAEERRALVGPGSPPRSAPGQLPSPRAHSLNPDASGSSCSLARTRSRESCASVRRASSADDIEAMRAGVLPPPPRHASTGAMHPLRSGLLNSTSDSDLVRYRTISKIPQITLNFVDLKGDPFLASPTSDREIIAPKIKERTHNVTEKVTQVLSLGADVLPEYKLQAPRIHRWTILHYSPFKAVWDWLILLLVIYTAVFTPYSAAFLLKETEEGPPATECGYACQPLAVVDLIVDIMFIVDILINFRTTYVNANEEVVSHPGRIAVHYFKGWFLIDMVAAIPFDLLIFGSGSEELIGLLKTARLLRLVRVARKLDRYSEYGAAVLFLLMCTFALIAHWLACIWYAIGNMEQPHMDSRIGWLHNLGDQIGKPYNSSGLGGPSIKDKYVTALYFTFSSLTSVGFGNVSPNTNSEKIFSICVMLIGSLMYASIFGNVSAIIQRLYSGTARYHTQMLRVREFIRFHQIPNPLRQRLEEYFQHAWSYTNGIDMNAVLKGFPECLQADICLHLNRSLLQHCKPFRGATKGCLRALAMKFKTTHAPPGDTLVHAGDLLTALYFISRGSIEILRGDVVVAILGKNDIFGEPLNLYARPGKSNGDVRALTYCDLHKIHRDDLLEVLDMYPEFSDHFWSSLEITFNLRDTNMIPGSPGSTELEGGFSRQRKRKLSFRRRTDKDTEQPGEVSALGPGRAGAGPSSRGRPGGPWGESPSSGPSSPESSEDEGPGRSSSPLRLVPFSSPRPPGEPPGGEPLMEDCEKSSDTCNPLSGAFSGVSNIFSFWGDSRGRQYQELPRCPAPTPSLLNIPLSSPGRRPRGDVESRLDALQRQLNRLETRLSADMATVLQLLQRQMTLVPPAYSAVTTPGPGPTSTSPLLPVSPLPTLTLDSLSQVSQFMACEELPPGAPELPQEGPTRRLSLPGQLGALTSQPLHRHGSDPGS

Row | Structure (SMILES) | hERG current change (%, negative = inhibition) at 1uM
1 | CNC(=O)CN1C(=O)NC(c2ccccc2)(c2ccccc2)C1=O | 7.25%
2 | O=C(CCNC(=O)c1ccc([N+](=O)[O-])cc1)Nc1cccc(S(=O)(=O)N2CCOCC2)c1 | -5.97%
3 | O=C(Nn1c(C2CC2)nc2ccccc2c1=O)c1ccco1 | -3.66%
4 | CN(CCCC(=O)Nc1ccccc1F)S(=O)(=O)c1ccc(F)cc1 | 7.08%
5 | COCCn1cc(C(=S)N2CCOCC2)c2ccccc21 | 4.29%
6 | CSc1cc(-c2ccc(Cl)cc2)[nH]c(=O)c1C#N | 8.84%
7 | CC[N+](C)(CC)CCOC(=O)C(O)(c1ccccc1)C1CCCCC1.[Br-] (centres unmarked) | 5.01%
8 | O=C(COc1ccc2ccccc2c1Br)NC(=S)Nc1cccc(CO)c1 | 7.86%
9 | CCOC(=O)c1c(NC(=S)Nc2ccccc2)sc2c1CC(C)(C)SC2 | 2.46%
10 | COc1ccc(CCNC(=O)CN(c2cccc([N+](=O)[O-])c2)S(C)(=O)=O)cc1 | 9.2%
11 | COC(=O)c1[nH]c(C)c(/C(O)=C2\C(=O)C(=O)N(CCN(C)C)C2c2ccc(C)o2)c1C (centres unmarked) | 4.24%
12 | CC(=O)Nc1c(I)c(NC(C)=O)c(I)c(C(=O)[O-])c1I.O.[Na+] | -0.997%
13 | Cc1ccc(C)c(NS(=O)(=O)c2ccc(OCC(=O)NCC3CCCO3)cc2)c1 (centres unmarked) | 9.63%
14 | CCOCCCn1c(=NC(C)=O)c(C#N)cc2c(=O)n3ccccc3nc21 | 11.7%
15 | COc1ccc(S(=O)(=O)N2CCC[C@H]2C(=O)NC2=NCCS2)cc1 | 1.86%
16 | Cl.c1ccc2c(CC3=NCCN3)cccc2c1 | -4.22%
17 | O=C(O)/C=C/c1ccc(-n2ccnc2)cc1 | 16.6%
18 | CC(C)(C)N/N=C/c1c(O)n(-c2ccc(Cl)cn2)c(=O)c2ccccc12 | 15.8%
19 | Cc1ccccc1NC(=O)C(C)OC(=O)C1CC(=O)N(Cc2ccco2)C1 (centres unmarked) | 12.1%
20 | Cc1ccc(-c2noc(CCCC(=O)NCC3CCCO3)n2)cc1 (centres unmarked) | 20.2%
21 | O=C(c1ccc(F)cc1)N1CCC2(CC1)NCCc1[nH]cnc12 | 8.81%
22 | COC(=O)c1cc(C)nc2c1c(C)nn2-c1ccccc1 | 11%

Row | Structure (SMILES) | hERG current change (%, negative = inhibition) at 1uM
23 | Cc1ccc(Cl)cc1NC(=O)C(=O)N/N=C/c1ccc2c(c1)OCO2 | 12.2%
24 | CCS(=O)(=O)c1c([N+](=O)[O-])ncn1C | 2.28%
25 | O=C(/C=C/c1ccco1)Nc1scc(-c2ccccc2)c1C(=O)O | 12.7%
26 | Cc1c(/C=N/NC(=O)c2cccnc2)c2ccccn2c1C(=O)c1ccc(F)cc1 | -1.52%
27 | COc1ccc2oc(C(=O)OCC(=O)NC(=O)c3ccccc3)c(C)c2c1 | 9.62%
28 | O=C(NCc1ccccc1)c1ccc(S(=O)(=O)C(F)F)cc1 | -8.44%
29 | Cc1ccc(Nc2nc(N)nc(CN3CCN(C(=O)c4ccco4)CC3)n2)cc1Cl | -54.1%
30 | Nc1c(Cl)ncnc1NCc1ccccc1 | 11.9%
31 | O=C(NC1CCCCC1)c1nc2c(nnn2Cc2ccccc2Cl)c(=O)[nH]1 | 17.5%
32 | CCOC(=O)N1CCC(N2CCN(S(=O)(=O)c3ccc(C)cc3)CC2)CC1.O=C(O)C(=O)O | -4.37%
33 | N#Cc1c(/N=C/c2ccco2)sc2c1CCC2 | -4.57%
34 | CS(=O)(=O)NN1C(=O)c2ccccc2NC1c1cccc(O)c1 (centres unmarked) | 10.8%
35 | CN(C)/N=C/c1ccc([N+](=O)[O-])cc1[N+](=O)[O-] | 10.5%
36 | CCSc1nnc(NC(=O)CCc2ccccc2)s1 | 4.4%
37 | COc1ccccc1N1N=C(C(=O)c2ccccc2)C2C(=O)N(c3ccc(Br)cc3)C(=O)C21 (centres unmarked) | 12.9%
38 | CS(=O)(=O)c1ccc2nc(NC(=O)c3cccc([N+](=O)[O-])c3)sc2c1 | 11.1%
39 | Nc1c(C(=O)NCCN2CCOCC2)c2nc3ccccc3nc2n1CCc1ccccc1F | 5.25%
40 | O=C(NCCO)C(=O)NCC1CCCN1S(=O)(=O)c1cccs1 (centres unmarked) | 12.5%
41 | Nc1c(C(=O)Nc2ccc3c(c2)OCCO3)nnn1Cc1cccc(Br)c1 | 3.9%
42 | COCCNC(=O)CSc1nnc(-c2ccccc2F)n1Cc1ccccc1 | 9.99%
43 | CNC(=S)N1N=C(c2ccc(OC)cc2)CC1c1ccc(Cl)cc1Cl (centres unmarked) | 13.9%
44 | CCc1c(C(=O)Nc2cc(C)ccc2OC)[nH]c(C)c1C(C)=O | 3.47%
